The results in this text go back to US20250179172A1 (HAINAN SIMCERE ZAIMING PHARMACEUTICAL, published 2025).

What is called Kd is the constant that tells how readily two partners part at equilibrium. A low value points to tighter binding. Usually koff stands for the first-order rate constant of dissociation. Read a low koff as a long-lived complex. Usually kon stands for the rate constant with which the complex forms. Read a low kon as slower complex formation. As usually defined, the EC50 is the concentration needed to bring the measured effect to its halfway point. Lower therefore signals greater potency.

The target of assay [1] is T1, human CD5 (Arg25-Pro372)-His protein (Acro, Cat. No. CD5-H52H5) (human, UniProt P06127 25-372).
T1 construct: range 25-372; also called human CD5-His; hCD5-His; not shown: His tag
T1 sequence (looked up): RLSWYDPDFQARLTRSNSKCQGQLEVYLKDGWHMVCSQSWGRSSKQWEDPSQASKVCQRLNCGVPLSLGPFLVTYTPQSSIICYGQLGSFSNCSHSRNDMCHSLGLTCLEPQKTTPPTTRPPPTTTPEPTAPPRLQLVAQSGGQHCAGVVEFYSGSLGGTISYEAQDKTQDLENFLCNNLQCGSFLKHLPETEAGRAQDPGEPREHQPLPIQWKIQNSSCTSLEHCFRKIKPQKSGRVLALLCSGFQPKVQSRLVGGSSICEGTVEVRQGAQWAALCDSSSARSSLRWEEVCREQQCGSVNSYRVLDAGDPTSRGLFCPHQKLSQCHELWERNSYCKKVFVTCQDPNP
Description: SPR (Biacore), antibody captured on Protein A chip, hCD5-His in solution, 1:1 model. On the procedure: The anti-human CD5 VHH-hFc was captured using a Protein A chip (GE Healthcare; 29-127-558). The sample and running buffer were HBS-EP+ (10 mM HEPES, 150 mM NaCl, 3 mM EDTA, 0.05% surfactant P20) (GE Healthcare; BR-1006-69). The flow cell was set at 25° C. The sample block was set at 16° C. Both were pretreated with the running buffer. In each cycle, first, the test antibody was captured using the Protein A chip, and then a single concentration of CD5 antigen protein was injected. The association and dissociation processes of the antibody with the antigen protein were recorded, and finally, the chip was regenerated using Glycine pH 1.5 (GE Healthcare; BR-1003-54). The association was determined by injecting different concentrations of recombinant human CD5-His in the solution and maintaining for 240 s, wherein the flow rate was 30 μL/min, and the protein was diluted in a 1:1 dilution ratio from 200 nM (see detailed results for actual concentrations tested) to obtain 5 concentrations in total. The dissociation phase was monitored for up to 600 s and triggered by switching from the sample solution to the running buffer. The surface was regenerated by washing with 10 mM glycine solution (pH 1.5) at a flow rate of 30 μL/min for 30 s. The difference in bulk refractive index was corrected by subtracting the responses obtained from the goat anti-human Fc surface, and blank injections were also subtracted (=double referencing). To calculate the apparent KD and other kinetic parameters, the Langmuir 1:1 model was used. The association rate (Kon), dissociation rate (Koff), and binding affinity (KD) of the VHH-hFc with the hCD5-His protein are shown in Table 12, in which the antibody H65 is used as a control.

Assay [2] deals with T2, human CD5, full length, on cells (Jurkat, endogenous; CHO-K1-human CD5, transfected) (human, UniProt P06127 25-495).
T2 construct: Jurkat cells carry the endogenous protein; also called hCD5; CHO-K1-hCD5-2B2
T2 sequence: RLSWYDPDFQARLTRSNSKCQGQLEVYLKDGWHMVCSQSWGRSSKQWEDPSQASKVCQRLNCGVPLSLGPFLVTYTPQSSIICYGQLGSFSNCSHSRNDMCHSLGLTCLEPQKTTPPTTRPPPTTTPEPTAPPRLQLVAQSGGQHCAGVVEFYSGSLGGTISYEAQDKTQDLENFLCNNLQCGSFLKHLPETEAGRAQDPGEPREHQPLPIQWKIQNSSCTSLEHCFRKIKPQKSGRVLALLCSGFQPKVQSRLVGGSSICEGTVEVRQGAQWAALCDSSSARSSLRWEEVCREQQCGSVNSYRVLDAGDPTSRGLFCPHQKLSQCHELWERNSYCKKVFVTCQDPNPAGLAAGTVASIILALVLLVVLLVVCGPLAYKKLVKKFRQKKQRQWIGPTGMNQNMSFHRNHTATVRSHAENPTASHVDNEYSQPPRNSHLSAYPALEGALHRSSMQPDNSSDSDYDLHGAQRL
The assay is described as follows: FACS on Jurkat cells. From the text:
The desired cells were expanded to a logarithmic growth phase in a T-75 cell culture flask. Adherent cells CHO-K1-human CD5 were removed from the culture medium by pipetting, and the cells were washed twice with a PBS buffer, digested with trypsin, and washed twice with a PBS buffer again after the digestion was stopped. For suspension cells Jurkat, the medium supernatant was discarded by direct centrifugation, and the cell pellet was washed twice with PBS. After the cells obtained in the last step were subjected to cell counting, the cell pellet was resuspended to 2×10⁶ cells/mL with a blocking solution [PBS+2% (w/w) BSA] and added to a 96-well FACS reaction plate with 50 μL/well. The VHH-hFc or control antibody was added with 50 μL/well, and the plate was incubated on ice for 2 h. […] After the plate was centrifuged and washed for 5 times with a PBS buffer, the results were assayed and analyzed by FACS (FACS Canto™, purchased from BD Biosciences). Data analysis was performed by software (BD FACSDiva) to obtain the mean fluorescence intensity (MFI) of the cells. Analysis was then performed by software (GraphPad Prism8), data were fitted, and EC₅₀ values were calculated. […] The same method was used to assay the binding reactions of 1 nM and 10 nM VHH-hFc antibodies with Jurkat cells and endogenous CD5-negative Raji cells, and to assay the binding reactions of 1 nM and 10 nM VHH-hFc antibodies with CHO-K1 cells and CHO-K1-human CD5.

The target in assay [3] is T1, human CD5 (Arg25-Pro372)-His protein …. The assay is described as follows: ELISA on hCD5-His, antibody 0.1 nM. On the procedure:
The binding activity of the H65 antibody prepared above with human CD5 protein was subjected to ELISA assay. A purchased commercial antigen (human CD5-His) was diluted with PBS to obtain a final concentration of 2 μg/mL, and then added to a 96-well ELISA plate with 100 µL/well. The plate was sealed with a plastic film and incubated at 4° C. over the night, washed twice with PBS in the next day, added with a blocking solution [PBS+2% (w/w) BSA] and blocked at room temperature for 2 h. The blocking solution was drained out, and 100 nM of the H65 antibody or negative control antibody hIgG1 after gradient dilution was added, namely, the obtained product was the antibody Anti-HEL-hIgG1 against hen egg lysozyme (purchased from Biointron, Cat. No. B117901) with 50 μl per well. After incubation for 2 h at 37° C., the plate was washed for 3 times with PBS. A secondary antibody labeled with HRP (horseradish peroxidase) (A0170, purchased from Sigma) was added. After incubation for 2 h at 37° C., the plate was washed for 5 times with PBS. A TMB substrate was added with 50 μL/well and incubated at room temperature for 30 min, then a stop solution (1.0 N HCl) was added with 50 μL/well.
To assay the binding activity of VHH-hFc to human CD5 protein, ELISA assay was performed according to the method described in Example 2.2. […] IgG control is hIgG1, and data in the table are values of OD_{450 nm}.

B1: S005-NB144-4 VHH-hFc (Fc fusion)
chain: EVQVVESGGGLVQAGGSLRLSCAASGSIFSINAMGWYRQAPGKEREVVAAISNGGNTYYEDSVMGRFTISRDNAKGTLYLQMNGLKPEDTAVYYCNADTVVGGGLLTEVWGQGTLVTVSS[human IgG1 Fc with changes not printed]
notes: VHH fused to human IgG1 Fc; no linker stated
In assay [1], B1 showed a Kd of 3.67 nM, a koff of 0.000701 s⁻¹ and a kon of 191000 M⁻¹ s⁻¹. In addition, in assay [2], the response was half-maximal at 0.08 nM (EC50) and the “Max MFI” value stood at 1870 MFI. The same molecule yielded an OD450 in assay [3] of 1.01 OD450.

B2: H65 scFv-hFc (Fc fusion)
chain: NIQLVQSGPELKKPGETVKISCKASGYTFTNYGMNWVKQAPGKGLRWMGWINTHTGEPTYADDFKGRFAFSLETSASTAYLQINNLKNEDTATYFCTRRGYDWYFDVWGAGTTVTVSSGGGGSGGGGSGGGGSDIKMTQSPSSMYASLGERVTITCKASQDINSYLSWFHHKPGKSPKTLIYRANRLVDGVPSRFSGSGSGQDYSLTISSLDYEDMGIYYCQQYDESPWTFGGGTKLEMK[human IgG1 Fc with changes not printed]
notes: also called H65 antibody
In assay [1], B2 came in with a Kd of 1.56 nM, a koff of 0.00148 s⁻¹ and a kon of 947000 M⁻¹ s⁻¹. In addition, in assay [2], the EC50 was found to be 0.32 nM and the “Max MFI” value was 2750 MFI. Besides, in assay [3], the OD450 stood at 0.64 OD450.

B3: S005-NB145-3 VHH-hFc (Fc fusion)
chain: QVQLVESGGGLVQPGGSLRLSCAASGFSLDYYAIGWFRQAPGKEREGVSYISPSDGRTYYADSVKGRFTISRDNAKNTVYLQMNSLKPEDTAVYYCATDWGSTSFDYGLKLSPTQYGYWGQGTQVTVSS[human IgG1 Fc with changes not printed]
notes: as for B1
Take B3: in assay [1], the Kd was 1.72 nM, the koff worked out at 0.000922 s⁻¹ and the association rate constant (kon) stood at 536000 M⁻¹ s⁻¹. In assay [2], the midpoint of the response, the EC50, lay at 4.7 nM and the “Max MFI” value came out at 2100 MFI. Further, the OD450 in assay [3] is 0.61 OD450.

B4: S005-NB145-92 VHH-hFc (Fc fusion)
chain: EVQLVESGGGLVQPGGSLRLSCAASGFSLDYYAIGWFRQAPGKEREGVSYISASDGSTYYADSVKGRFTISRDNAKNTVYLQMNSLKPEDTAVYYCATDWGSGSFNYGLRLSPTQYDYWGQGTQVTVSS[human IgG1 Fc with changes not printed]
notes: as for B1
In assay [1], B4 came in with a Kd of 5.64 nM, a koff of 0.0024 s⁻¹ and a kon of 426000 M⁻¹ s⁻¹. In assay [2], the EC50 was 3.46 nM and the “Max MFI” value was found to be 1280 MFI. For the same molecule, the OD450 in assay [3] came to 0.87 OD450.

B5: S005-NB144-43 VHH-hFc (Fc fusion)
chain: QVQLVESGGGLVQPGGSLRLSCAASGFTWDYYAIGWFRQAPGKEREGVSCIDSSGGSINYLDSVKGRFTVSRDNAKNTVYLQMDSLKPEDTAIYYCAASSYWDCAVPDTGSPKTGHLESYFGSWGQGTQVIVSS[human IgG1 Fc with changes not printed]
notes: VHH fused to human IgG1 Fc; no linker stated; also called S002-NB144-43
As to B5, in assay [1], the Kd is 0.325 nM, the koff was 9.87e-05 s⁻¹ and the kon amounted to 304000 M⁻¹ s⁻¹. For the same molecule, in assay [2], a half-maximal response (EC50) required 427 nM and the “Max MFI” value worked out at 2620 MFI. Besides, the OD450 in assay [3] came to 0.79 OD450.

B6: S005-NB144-3 VHH-hFc (Fc fusion)
chain: QLQLVESGGGLVQPGGSLRLSCAASGFTFSSYAMSWYRQAPGKERELVAAITSAGGSTTYADSVKDRFTISRDNAKNTVSLQMNSLKPEDTAVYYCNAYCTGYVCHEGGYDYWGQGTQVTVSS[human IgG1 Fc with changes not printed]
notes: VHH variable region recombined into vector BI3.4-huIgG1 with signal peptide and human IgG1 Fc; no linker between VHH and Fc is stated
In assay [1], B6 yielded a dissociation constant Kd of 2.8 nM, a koff of 0.00218 s⁻¹ and a kon of 781000 M⁻¹ s⁻¹. In addition, in assay [2], the EC50 amounted to 4.09 nM and the “Max MFI” value was 2740 MFI. In assay [3], the OD450 was determined as 0.79 OD450.

B7: S005-NB145-22 VHH-hFc (Fc fusion)
chain: QVQLVESGGGLVQAGGSLRLSCAVSGRTLSTVVVGWFRQTPGREREFVAVSRSGGATGYADSVKDRFTISRDNAKNTVALQMNSLKPEDTAVYYCAGRGSGLYGSSWYNQIQEYDGWGQGTQVTVSS[human IgG1 Fc with changes not printed]
notes: as for B1
B7: in assay [1], the Kd stood at 0.355 nM, the koff was 0.000363 s⁻¹ and the kon was 1.02e+06 M⁻¹ s⁻¹. Further, in assay [2], the concentration giving a half-maximal response (EC50) worked out at 0.71 nM and the “Max MFI” value was 1930 MFI. Further, the OD450 in assay [3] came out at 0.59 OD450.

B8: S005-NB144-73 VHH-hFc (Fc fusion)
chain: EVQVVESGGGLVQAGGSLRLSCAASGDTICISAMYWYRQAPGKAREMVAAITSGGSTYYEDSVMGRFTIFRENAKNTVYLQMNSLKPEDTAVYYCNADIAGHNCSGYLKEYWGQGTQVTVSA[human IgG1 Fc with changes not printed]
notes: VHH fused to human IgG1 Fc; no linker stated; also called S002-NB144-73
In assay [1], B8 showed a Kd of 0.248 nM, a koff of 0.000351 s⁻¹ and a kon of 1.41e+06 M⁻¹ s⁻¹. In addition, in assay [2], it took 0.14 nM to reach a half-maximal effect (EC50) and the “Max MFI” value was 2730 MFI. Also, the OD450 in assay [3] came out at 0.48 OD450.

B9: S005-NB145-74 VHH-hFc (Fc fusion)
chain: EVQLVESGGGLVQAGGSLRLSCAASESTFSITAMGWYRQAPGKQRELVAAITSPGGSTNYADSVKGRFTISRDNAKNTMLLQMNSLKPEDTAVYYCNADINHGSGYYTVSWGQGTQVTVSS[human IgG1 Fc with changes not printed]
notes: as for B1
B9: in assay [1], the affinity, expressed as Kd, was 12.9 nM; the koff turned out to be 0.0146 s⁻¹; the kon amounted to 1.13e+06 M⁻¹ s⁻¹. In assay [2], the response was half-maximal at 3.85 nM (EC50) and the “Max MFI” value was 1290 MFI. This molecule yielded an OD450 in assay [3] of 0.85 OD450.
